These are yes or no findings as the source states them, for the method shown. For part of these data: Binding seen in cells or lysates may run through a third protein. Some binding calls cover weakened binding; strength is not graded here. For part of these data: Sequences can lack the tags named with a protein. Blank lines part the entries; values can stand above or below the molecule they belong to.
What was measured:
GST-TAK1 [1] = molecular target: T1, GST-TAK1 (UniProt O43318); assay: pull-down; GST-TAK1 coupled to glutathione beads incubated with RAW264.7 cell lysate for 4 h at 4 °C; immunoblot of endogenous PLCβ2 (Fig. 3e); only the target purified
T1 sequence: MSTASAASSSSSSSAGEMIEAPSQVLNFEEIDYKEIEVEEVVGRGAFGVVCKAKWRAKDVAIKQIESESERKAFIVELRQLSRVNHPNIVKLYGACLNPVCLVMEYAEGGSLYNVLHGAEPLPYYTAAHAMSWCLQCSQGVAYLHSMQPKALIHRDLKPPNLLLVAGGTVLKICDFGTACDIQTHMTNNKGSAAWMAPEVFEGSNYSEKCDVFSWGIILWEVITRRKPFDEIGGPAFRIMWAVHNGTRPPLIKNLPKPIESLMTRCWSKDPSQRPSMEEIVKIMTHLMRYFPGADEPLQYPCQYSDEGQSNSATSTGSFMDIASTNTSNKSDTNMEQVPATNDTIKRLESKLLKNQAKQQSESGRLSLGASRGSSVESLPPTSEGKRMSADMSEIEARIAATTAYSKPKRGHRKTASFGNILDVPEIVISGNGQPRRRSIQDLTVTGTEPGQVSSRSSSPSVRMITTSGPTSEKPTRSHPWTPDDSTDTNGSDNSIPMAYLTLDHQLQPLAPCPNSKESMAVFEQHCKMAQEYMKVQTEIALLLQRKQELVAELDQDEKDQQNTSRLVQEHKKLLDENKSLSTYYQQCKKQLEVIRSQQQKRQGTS

Chains of the proteins cited; added tags and fusions are not shown. Lines headed by an entry give the natural chain unless they say otherwise; changes in a name come on top. A line that says so, or that is headed by a name, gives the form on record, which may keep a tag or linker.
UniProt Q00722: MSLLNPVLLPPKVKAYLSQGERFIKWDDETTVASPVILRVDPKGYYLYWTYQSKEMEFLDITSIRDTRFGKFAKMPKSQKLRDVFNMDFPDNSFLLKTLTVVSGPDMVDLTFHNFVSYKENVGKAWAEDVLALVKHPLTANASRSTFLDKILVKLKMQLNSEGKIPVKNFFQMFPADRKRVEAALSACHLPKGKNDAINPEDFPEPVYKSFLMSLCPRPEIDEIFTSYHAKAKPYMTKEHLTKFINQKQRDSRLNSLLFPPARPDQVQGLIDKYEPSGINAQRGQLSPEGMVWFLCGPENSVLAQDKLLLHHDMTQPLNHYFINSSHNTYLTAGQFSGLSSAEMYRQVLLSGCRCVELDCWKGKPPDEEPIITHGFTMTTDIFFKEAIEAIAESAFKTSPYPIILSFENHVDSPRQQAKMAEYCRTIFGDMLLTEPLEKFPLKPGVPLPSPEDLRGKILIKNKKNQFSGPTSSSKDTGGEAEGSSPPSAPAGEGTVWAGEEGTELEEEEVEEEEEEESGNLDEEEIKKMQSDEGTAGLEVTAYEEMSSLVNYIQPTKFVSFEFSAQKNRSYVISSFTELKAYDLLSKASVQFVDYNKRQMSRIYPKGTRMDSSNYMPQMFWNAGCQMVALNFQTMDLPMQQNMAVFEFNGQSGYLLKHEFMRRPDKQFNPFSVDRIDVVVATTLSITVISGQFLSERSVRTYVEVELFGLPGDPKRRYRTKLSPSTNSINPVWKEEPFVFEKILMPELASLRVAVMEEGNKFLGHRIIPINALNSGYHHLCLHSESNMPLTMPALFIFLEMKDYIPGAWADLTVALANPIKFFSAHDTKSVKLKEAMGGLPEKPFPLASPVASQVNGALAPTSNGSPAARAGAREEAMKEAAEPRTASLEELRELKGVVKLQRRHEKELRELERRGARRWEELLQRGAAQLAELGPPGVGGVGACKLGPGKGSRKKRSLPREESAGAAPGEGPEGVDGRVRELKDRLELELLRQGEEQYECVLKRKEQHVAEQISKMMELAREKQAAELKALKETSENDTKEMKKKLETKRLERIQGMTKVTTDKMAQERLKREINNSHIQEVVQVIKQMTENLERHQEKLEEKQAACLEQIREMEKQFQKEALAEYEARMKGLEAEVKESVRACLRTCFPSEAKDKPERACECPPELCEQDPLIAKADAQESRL
phospholipase-inactive mutant of PLCβ2 (H327 and H374 mutated to alanine) (Q00722, form named): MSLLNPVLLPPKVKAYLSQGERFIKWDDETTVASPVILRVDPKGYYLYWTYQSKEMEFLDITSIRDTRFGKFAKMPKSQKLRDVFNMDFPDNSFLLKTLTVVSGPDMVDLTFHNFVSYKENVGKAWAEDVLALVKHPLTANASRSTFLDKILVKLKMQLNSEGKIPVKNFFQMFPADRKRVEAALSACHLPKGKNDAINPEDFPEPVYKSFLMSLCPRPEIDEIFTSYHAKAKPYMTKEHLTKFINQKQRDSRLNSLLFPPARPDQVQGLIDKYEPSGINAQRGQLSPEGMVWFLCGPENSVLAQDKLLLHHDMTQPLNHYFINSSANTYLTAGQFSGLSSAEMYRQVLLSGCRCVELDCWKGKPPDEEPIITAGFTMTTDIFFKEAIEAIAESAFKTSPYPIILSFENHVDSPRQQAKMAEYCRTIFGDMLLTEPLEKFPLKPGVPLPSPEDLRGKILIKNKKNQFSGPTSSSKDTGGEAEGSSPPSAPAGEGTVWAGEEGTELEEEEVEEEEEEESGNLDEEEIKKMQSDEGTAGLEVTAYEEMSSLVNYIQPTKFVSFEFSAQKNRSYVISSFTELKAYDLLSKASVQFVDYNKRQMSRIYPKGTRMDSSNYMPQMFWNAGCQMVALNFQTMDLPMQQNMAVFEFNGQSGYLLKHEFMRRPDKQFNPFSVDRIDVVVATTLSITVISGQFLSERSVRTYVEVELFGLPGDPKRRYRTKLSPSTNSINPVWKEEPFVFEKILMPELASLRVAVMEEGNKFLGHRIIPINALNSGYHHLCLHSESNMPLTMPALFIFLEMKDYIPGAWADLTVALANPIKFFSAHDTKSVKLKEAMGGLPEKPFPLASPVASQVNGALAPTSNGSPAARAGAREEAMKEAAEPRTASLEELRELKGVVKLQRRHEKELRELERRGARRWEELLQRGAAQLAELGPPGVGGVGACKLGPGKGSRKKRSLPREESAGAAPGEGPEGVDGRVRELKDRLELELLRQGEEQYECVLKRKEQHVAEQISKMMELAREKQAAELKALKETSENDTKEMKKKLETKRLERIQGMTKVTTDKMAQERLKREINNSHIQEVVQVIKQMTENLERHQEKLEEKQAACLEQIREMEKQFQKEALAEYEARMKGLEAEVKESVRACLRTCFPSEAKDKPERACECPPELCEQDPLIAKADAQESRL
UniProt A3KGF7: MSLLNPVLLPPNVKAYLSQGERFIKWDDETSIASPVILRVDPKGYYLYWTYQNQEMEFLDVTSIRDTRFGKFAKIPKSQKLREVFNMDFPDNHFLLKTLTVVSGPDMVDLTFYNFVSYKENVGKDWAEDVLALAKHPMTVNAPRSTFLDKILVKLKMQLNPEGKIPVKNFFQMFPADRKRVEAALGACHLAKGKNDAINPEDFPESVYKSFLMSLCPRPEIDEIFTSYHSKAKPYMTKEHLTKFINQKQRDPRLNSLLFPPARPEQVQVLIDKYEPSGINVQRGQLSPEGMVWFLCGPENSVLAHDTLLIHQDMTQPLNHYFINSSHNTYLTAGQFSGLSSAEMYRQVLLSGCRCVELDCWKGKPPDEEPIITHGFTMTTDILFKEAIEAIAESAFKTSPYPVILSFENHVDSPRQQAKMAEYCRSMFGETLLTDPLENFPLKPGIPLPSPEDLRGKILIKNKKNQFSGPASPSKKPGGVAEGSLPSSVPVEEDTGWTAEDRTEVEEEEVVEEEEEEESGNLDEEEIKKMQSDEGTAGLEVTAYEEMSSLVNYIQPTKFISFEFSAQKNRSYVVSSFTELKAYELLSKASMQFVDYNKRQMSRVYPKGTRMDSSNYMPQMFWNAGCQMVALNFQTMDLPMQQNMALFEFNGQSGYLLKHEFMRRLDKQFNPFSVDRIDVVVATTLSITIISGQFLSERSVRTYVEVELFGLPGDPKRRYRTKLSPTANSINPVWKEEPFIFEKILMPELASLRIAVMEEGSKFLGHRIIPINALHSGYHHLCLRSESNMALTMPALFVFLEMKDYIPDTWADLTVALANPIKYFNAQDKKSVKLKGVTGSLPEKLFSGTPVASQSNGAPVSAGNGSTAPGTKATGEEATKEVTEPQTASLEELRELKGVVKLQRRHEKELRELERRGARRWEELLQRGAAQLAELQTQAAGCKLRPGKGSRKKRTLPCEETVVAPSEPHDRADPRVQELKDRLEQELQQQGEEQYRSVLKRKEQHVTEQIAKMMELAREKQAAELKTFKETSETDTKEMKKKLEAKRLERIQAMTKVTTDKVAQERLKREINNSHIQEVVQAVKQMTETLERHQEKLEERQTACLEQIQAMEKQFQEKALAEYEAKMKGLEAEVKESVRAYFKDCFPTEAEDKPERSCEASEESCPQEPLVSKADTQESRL

GST-TAK1 [2] = molecular target: T1, GST-TAK1; assay: pull-down; in vitro GST precipitation: GST-TAK1 coupled to glutathione beads incubated with purified His-PLCβ2 for 4 h at 4 °C; immunoblot (Fig. 3d); both purified
[3] = molecular target: FLAG-tagged PLCβ2 (phospholipase C β2) (UniProt Q00722); assay: co-IP
FLAG-tagged PLCβ1 = molecular target: T2, FLAG-tagged PLCβ1 (UniProt Q9NQ66); assay: co-IP
T2 sequence: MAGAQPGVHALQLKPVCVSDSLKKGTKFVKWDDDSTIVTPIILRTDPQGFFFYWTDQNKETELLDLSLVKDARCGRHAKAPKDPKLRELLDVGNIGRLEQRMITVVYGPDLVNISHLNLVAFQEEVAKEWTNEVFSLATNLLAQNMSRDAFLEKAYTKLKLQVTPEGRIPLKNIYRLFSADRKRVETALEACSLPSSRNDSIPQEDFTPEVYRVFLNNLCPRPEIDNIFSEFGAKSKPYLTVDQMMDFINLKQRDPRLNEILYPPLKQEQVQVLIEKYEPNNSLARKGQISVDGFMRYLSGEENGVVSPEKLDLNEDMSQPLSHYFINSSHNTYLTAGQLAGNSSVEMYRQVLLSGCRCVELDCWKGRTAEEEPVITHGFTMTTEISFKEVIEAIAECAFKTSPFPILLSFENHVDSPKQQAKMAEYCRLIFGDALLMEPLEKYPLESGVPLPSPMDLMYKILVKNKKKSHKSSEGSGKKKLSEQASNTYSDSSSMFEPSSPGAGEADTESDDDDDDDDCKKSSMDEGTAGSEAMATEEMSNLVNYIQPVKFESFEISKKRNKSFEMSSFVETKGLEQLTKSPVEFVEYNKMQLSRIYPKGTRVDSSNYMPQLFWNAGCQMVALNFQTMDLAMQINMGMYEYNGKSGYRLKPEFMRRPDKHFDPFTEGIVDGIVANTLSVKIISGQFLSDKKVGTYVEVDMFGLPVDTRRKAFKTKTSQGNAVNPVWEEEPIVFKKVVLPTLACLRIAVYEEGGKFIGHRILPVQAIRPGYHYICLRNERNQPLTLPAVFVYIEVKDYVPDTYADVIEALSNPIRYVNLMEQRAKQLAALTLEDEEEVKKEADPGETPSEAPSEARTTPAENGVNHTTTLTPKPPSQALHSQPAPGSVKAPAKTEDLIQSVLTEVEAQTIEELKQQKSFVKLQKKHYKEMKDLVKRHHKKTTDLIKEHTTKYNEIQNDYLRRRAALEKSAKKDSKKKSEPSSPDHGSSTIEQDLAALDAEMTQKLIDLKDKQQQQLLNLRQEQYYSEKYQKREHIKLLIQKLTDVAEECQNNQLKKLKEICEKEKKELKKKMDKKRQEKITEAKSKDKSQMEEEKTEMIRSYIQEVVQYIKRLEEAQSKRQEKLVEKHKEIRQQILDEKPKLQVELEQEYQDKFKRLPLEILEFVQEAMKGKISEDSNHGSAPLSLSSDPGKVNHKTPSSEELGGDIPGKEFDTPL

[4] = molecular target: phospholipase-inactive mutant of PLCβ2 (H327 and H374 mutated to alanine) (UniProt Q00722); assay: co-IP
FLAG-tagged PLCβ3 = molecular target: T3, FLAG-tagged PLCβ3 (UniProt Q01970); assay: co-IP
T3 sequence: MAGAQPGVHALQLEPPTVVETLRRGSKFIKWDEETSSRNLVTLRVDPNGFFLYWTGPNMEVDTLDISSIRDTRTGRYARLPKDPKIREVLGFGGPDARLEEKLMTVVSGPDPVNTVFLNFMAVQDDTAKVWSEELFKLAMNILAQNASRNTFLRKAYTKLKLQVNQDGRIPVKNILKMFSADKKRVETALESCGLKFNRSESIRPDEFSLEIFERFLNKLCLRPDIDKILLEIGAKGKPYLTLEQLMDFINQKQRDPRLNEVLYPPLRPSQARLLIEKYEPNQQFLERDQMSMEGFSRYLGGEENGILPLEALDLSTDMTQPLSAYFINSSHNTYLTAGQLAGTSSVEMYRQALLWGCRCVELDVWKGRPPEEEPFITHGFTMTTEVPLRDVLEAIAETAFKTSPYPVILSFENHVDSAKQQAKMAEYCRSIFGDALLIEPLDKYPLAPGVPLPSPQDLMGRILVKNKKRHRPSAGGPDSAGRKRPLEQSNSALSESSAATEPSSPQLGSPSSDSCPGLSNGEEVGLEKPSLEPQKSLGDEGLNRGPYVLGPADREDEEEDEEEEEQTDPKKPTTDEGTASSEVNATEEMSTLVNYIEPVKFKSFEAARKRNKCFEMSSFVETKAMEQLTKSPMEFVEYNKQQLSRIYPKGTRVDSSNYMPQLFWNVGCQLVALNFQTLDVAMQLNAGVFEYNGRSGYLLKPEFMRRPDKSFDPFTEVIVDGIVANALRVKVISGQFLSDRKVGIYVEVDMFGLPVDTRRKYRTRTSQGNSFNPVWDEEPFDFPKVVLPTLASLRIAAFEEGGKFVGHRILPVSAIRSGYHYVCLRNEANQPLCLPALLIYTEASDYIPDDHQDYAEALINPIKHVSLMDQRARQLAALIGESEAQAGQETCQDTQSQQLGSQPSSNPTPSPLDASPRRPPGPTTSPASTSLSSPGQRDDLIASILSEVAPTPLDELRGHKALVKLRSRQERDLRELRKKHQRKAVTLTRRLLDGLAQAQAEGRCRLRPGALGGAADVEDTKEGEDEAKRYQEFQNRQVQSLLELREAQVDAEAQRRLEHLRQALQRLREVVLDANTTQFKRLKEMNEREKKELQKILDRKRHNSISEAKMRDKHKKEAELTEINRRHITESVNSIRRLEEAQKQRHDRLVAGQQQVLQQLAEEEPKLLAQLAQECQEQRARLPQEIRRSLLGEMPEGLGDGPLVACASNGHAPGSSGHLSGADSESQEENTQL

[5] = molecular target: T4, HA-tagged TAK1 (transforming growth factor-β-activated kinase 1) (UniProt O43318); assay: co-IP
T4 sequence: T1 sequence

[6] = molecular target: endogenous PLCβ2 (mouse (endogenous in RAW264.7 and in mouse peritoneal macrophages)) (UniProt A3KGF7); assay: co-IP; endogenous proteins; mouse peritoneal macrophages stimulated with poly(I:C) for the indicated times; lysates incubated with anti-PLCβ2 antibody and Protein G Sepharose overnight at 4 °C (Fig. 3f)

binding (GST-TAK1 [1]): binds
Molecule: endogenous PLCβ2 (from UniProt A3KGF7 1-1181) (enzyme)

binding (GST-TAK1 [2]): binds
Molecule: purified recombinant His-PLCβ2 (from UniProt Q00722 1-1185) (enzyme)

binding [3]: binds
binding (FLAG-tagged PLCβ1): no binding
binding [4]: binds
binding (FLAG-tagged PLCβ3): no binding
B1: HA-tagged TAK1 (transforming growth factor-β-activated kinase 1) (enzyme, UniProt O43318 1-606)
chain: T1 sequence

binding [3]: no binding
binding [5]: binds
B2: TAB1 (protein, UniProt Q15750 1-504)
chain: MAAQRRSLLQSEQQPSWTDDLPLCHLSGVGSASNRSYSADGKGTESHPPEDSWLKFRSENNCFLYGVFNGYDGNRVTNFVAQRLSAELLLGQLNAEHAEADVRRVLLQAFDVVERSFLESIDDALAEKASLQSQLPEGVPQHQLPPQYQKILERLKTLEREISGGAMAVVAVLLNNKLYVANVGTNRALLCKSTVDGLQVTQLNVDHTTENEDELFRLSQLGLDAGKIKQVGIICGQESTRRIGDYKVKYGYTDIDLLSAAKSKPIIAEPEIHGAQPLDGVTGFLVLMSEGLYKALEAAHGPGQANQEIAAMIDTEFAKQTSLDAVAQAVVDRVKRIHSDTFASGGERARFCPRHEDMTLLVRNFGYPLGEMSQPTPSPAPAAGGRVYPVSVPYSSAQSTSKTSVTLSLVMPSQGQMVNGAHSASTLDEATPTLTNQSPTLTLQSTNTHTQSSSSSSDGGLFRSRPAHSLPPGEDGRVEPYVDFAEFYRLWSVDHGEQSVVTAP

binding [6]: binds
B3: endogenous TAK1 (enzyme, UniProt Q62073 1-579)
chain: MSTASAASSSSSSSASEMIEAPSQVLNFEEIDYKEIEVEEVVGRGAFGVVCKAKWRAKDVAIKQIESESERKAFIVELRQLSRVNHPNIVKLYGACLNPVCLVMEYAEGGSLYNVLHGAEPLPYYTAAHAMSWCLQCSQGVAYLHSMQPKALIHRDLKPPNLLLVAGGTVLKICDFGTACDIQTHMTNNKGSAAWMAPEVFEGSNYSEKCDVFSWGIILWEVITRRKPFDEIGGPAFRIMWAVHNGTRPPLIKNLPKPIESLMTRCWSKDPSQRPSMEEIVKIMTHLMRYFPGADEPLQYPCQYSDEGQSNSATSTGSFMDIASTNTSNKSDTNMEQVPATNDTIKRLESKLLKNQAKQQSESGRLSLGASRGSSVESLPPTSEGKRMSADMSEIEARIVATAGNGQPRRRSIQDLTVTGTEPGQVSSRSSSPSVRMITTSGPTSEKPARSHPWTPDDSTDTNGSDNSIPMAYLTLDHQLQPLAPCPNSKESMAVFEQHCKMAQEYMKVQTEIALLLQRKQELVAELDQDEKDQQNTSRLVQEHKKLLDENKSLSTYYQQCKKQLEVIRSQQQKRQGTS

Source: article PMC6375925
